This note sets out measurements from PubChem BioAssay AID488969 (Vanderbilt High Throughput Screening Facility, 2010).

In all, about 110,000 compounds were measured (“z-score”: median about -0.1, highest 2% from about 2 on). This is one part of the list. Calls of active or inactive are those of the source.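 How the source made its calls: active means z-score in the third read window above 3 or below -3; inactive means the rest.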

The assay has as its target Metabotropic glutamate receptor 8 (Rattus norvegicus) (UniProt P70579). Briefly: mGluR8 Gi/Go-coupled signaling modulation – cell-based, rat, thallium flux, HTS, primary screen (AID 488969). The settings on record: HEK293 rat mGluR8, GIRK (G protein-gated inwardly rectifying potassium channel) thallium flux, FluoZin2; at 10 µM; stronger effect = higher value; submaximal glutamate (EC20) added with thallium.
UniProt P70579, sequence (P70579 whole entry, looked up): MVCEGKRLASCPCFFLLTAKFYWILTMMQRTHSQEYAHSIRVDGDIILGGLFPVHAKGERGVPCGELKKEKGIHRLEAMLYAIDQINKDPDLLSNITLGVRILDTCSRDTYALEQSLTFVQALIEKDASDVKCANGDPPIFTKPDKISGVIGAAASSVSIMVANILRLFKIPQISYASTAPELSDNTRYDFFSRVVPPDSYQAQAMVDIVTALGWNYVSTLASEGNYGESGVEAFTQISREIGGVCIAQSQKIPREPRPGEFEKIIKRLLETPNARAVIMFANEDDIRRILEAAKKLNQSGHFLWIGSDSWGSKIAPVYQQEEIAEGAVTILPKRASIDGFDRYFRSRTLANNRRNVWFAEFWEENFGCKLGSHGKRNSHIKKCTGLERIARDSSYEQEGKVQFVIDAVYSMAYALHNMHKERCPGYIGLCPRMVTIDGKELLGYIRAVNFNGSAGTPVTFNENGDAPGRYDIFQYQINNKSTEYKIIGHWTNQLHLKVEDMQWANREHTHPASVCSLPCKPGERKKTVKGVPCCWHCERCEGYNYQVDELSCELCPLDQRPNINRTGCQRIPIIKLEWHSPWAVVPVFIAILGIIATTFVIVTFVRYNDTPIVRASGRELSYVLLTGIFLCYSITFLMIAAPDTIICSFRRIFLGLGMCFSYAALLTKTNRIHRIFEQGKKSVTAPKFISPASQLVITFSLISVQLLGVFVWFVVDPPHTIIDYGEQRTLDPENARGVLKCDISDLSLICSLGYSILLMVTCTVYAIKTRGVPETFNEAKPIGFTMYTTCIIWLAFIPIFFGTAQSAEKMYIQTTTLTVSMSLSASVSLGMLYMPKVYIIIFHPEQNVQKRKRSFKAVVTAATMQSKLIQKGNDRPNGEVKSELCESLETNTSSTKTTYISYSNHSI
The compound `CN(CC(=O)Nc1ccccc1Br)Cc1nc2ccccc2c(=O)[nH]1` registered a z-score of 0.733.

With `O=C(CN1CCN(S(=O)(=O)c2ccccc2)CC1)Nc1ccccc1C(=O)c1ccccc1`, the z-score is -0.342.

Consider `O=C(NCCC1=CCCCC1)C1CCCN(c2nc3ccccc3o2)C1` (centres undefined), for which the z-score was -1.1.

For `COc1ccc(/C=N/NC(=O)C(=O)N2CCCC2)cc1OC`, the z-score was -0.402.

Consider `Cc1ccc(NC(=O)N2CCOCC2)c(C)c1`, for which the z-score was 0.386.

As for `CCn1c(=O)n(CC(=O)N(C)Cc2ccccc2)c(=O)c2ccccc21`, the z-score is -0.456.

Regarding `CCCc1cc(C(=O)N(C2CCCCC2)C2CCCCC2)no1`, the z-score came out at 0.314.

Turning to `O=C(COC(=O)c1cnccn1)c1ccc(OC(=O)c2ccccc2)cc1`, the z-score worked out at 0.111.

Take `CC1=CC(C)(C)N2C(=O)C3(C(C#N)=C(N)Oc4cc(C)oc(=O)c43)c3cc(C)cc1c32` (centres undefined): the z-score is -0.282.

`CCn1c(=N)n(CCOc2ccc(OC)cc2)c2ccccc21`: the z-score was -0.158.

Consider `CCOc1nc(N2CCOCC2)nc(C)c1[N+](=O)[O-]`, for which the z-score is -0.604.

For `NC(=O)c1ccccc1N/C=C/C(=O)c1cccs1`, the z-score is -0.0149.

For the compound `COc1ccc(N2CCN(C(CNS(=O)(=O)c3cc(F)ccc3F)c3cccnc3)CC2)cc1` (centres undefined), the z-score is -0.0134.

On to `CCC(=O)Nc1ccc(C(=O)CSc2nnc(-c3ccccc3F)n2CCc2ccccc2)cc1`, for which the z-score is -1.08.

Turning to `O=C(NC(=S)Nc1ccc(S(=O)(=O)Nc2nccs2)cc1)c1ccc(F)c(F)c1`, the z-score was -0.204.

In the case of `CC(C)c1c(O)nc(SCCN2CCOCC2)[nH]c1=O`, the z-score is -0.557.

As to `CCc1ccc2oc(-c3ccc(N)cc3)nc2c1`, the z-score was -0.85.

Regarding `CC(CCc1ccccc1)NC(=O)C1CCN(C(=O)c2sccc2-n2cccc2)CC1` (centres undefined), the z-score is -0.67.

Consider `Cc1ccc(CN2C(=O)CCC2C(=O)NC(C)C)cc1` (centres undefined), for which the z-score turned out to be 0.893.

As for `CCN(CC)C(=O)CSc1nc(O)cc(=O)n1C`, the z-score was -0.0847.

As to `Cc1ccc(-n2c(SCC(=O)NNC(=S)Nc3ccccc3)nc3ccccc3c2=O)cc1`, the z-score is -0.543.

On to `O=C(CN1C(=O)CCC1=O)NCC12CC3CC(CC(C3)C1)C2`, for which the z-score is -0.297.

Regarding `COc1c(C(=O)Nc2c(C)n(C)n(-c3ccccc3)c2=O)ccc2ccccc12`, the z-score is -0.517.

In turn, `CN(Cc1ccccc1)C(=O)COc1cc(=O)n(C)c2ccccc12` had a z-score of 0.391.

As to `Cc1cccc(Cn2c(N(C)Cc3ccccc3)nc3c2c(=O)[nH]c(=O)n3C)c1`, the z-score is -0.525.

For `Cc1csc(NC(=O)c2cccc(C)c2C)n1`, the z-score was -0.271.

With `Cc1cc(C(=O)NCc2ccc(S(N)(=O)=O)cc2)c(C)o1`, the z-score was -0.0806.

Turning to `COc1ccc(-c2ccc(C#N)c(SCC(=O)NCCc3ccccc3)n2)cc1OC`, the z-score is -0.534.

Regarding `Brc1ccccc1-c1nnc2sc(-c3ccc4c(c3)OCCO4)nn12`, the z-score is active: -3.43.

Regarding `O=c1c2cnn(-c3ccc(F)cc3)c2ncn1Cc1cccnc1`, the z-score is -0.667.

With `CCN(CC)C(=O)c1cc2sc3ccccc3c2s1`, the z-score was -0.696.

For `Cc1ccc(C)c(N2CCN(C(=O)CC3Sc4ccccc4NC3=O)CC2)c1` (centres undefined), the z-score is -0.141.

In turn, `CCOc1ccccc1-c1nc(-c2ccc(NC(=O)Cc3ccccc3OC)cc2)no1` gave a z-score of 0.714.

In the case of `O=C1NC(=O)C2(COC(c3ccccc3Cl)OC2)S1` (centres undefined), the z-score is -0.116.

Consider `COC(=O)c1ccc(C)c(NS(=O)(=O)c2ccc3c(c2)OCCO3)c1`, for which the z-score was 0.875.

Turning to `CCOC(=O)CSc1nc(-c2ccccc2)nc2ccc(F)cc12`, the z-score is -0.404.

As for `COCCNC(=S)N1C2CCC1CC(NC(=O)NC13CC4CC(CC(C4)C1)C3)C2` (centres undefined), the z-score was -0.144.

`COc1ccc(-c2oc(/N=C/N3CCCC3)c(C#N)c2-c2ccc(OC)cc2)cc1`: the z-score is -0.0141.

As for `O=C(CN1CCCCC1)Nc1ccc(S(=O)(=O)N2CCOCC2)cc1`, the z-score is -0.0871.

Take `O=C(NC1CCCCC1)NC1CCN(S(=O)(=O)Cc2ccccc2)CC1`: the z-score was -0.0506.

In turn, `COc1ccc(OC)c(S(=O)(=O)N2CCC(C(=O)NC(C)c3ccccc3)CC2)c1` (centres undefined) gave a z-score of 0.0492.

With `Cc1ccc(C)c2[nH]c(=O)c(CN(Cc3ccc4c(c3)OCO4)Cc3nnnn3Cc3ccco3)cc12`, the z-score was determined as 0.566.

Consider `O=C(NCc1ccco1)c1cnn2c1NC(c1ccccc1)CC2C(F)(F)F` (centres undefined), for which the z-score was -0.927.

As for `COC(=O)c1cc(OC)c(OC)cc1NC(=O)c1ccc(C)o1`, the z-score is -0.653.

As to `CC1CN(C(=O)Cc2ccc(-c3ccccc3)cc2)CC(C)O1` (centres undefined), the z-score was 0.784.

In turn, `Nc1nonc1-n1nncc1-c1ccccc1` had a z-score of 0.523.

On to `Cc1ccc(C(=O)N/C(=C/c2ccc(Cl)cc2)C(=O)NCC2CCCO2)cc1` (centres undefined), for which the z-score is -0.37.

In turn, `C=CCN(CC=C)CC(O)Cn1c2ccccc2c2ccccc21` (centres undefined) displayed a z-score of 0.371.

Consider `COc1ccc(OC)c(-c2c[n+](=O)c3c(n2[O-])CCCC3)c1`, for which the z-score stood at 0.0184.

For the compound `CC(C)CC(=O)Nc1ccc(N2CCOCC2)cc1`, the z-score stood at 0.0722.

As to `Cc1cccn2c(=O)c3cc(C(=O)NCCCN4CCCC4=O)n(C)c3nc12`, the z-score was -0.153.

Consider `CCSc1nc2ccccc2n1CCC(=O)O`, for which the z-score is -0.625.

Regarding `COc1cc(/C=N/OCC(=O)Nc2cc(C)cc(C)c2)ccc1OCc1ccc(Cl)cc1`, the z-score is -0.106.

On to `CCOc1cc(/C=N/N=C(N)N)ccc1OCc1ccc(Cl)cc1`, for which the z-score turned out to be 0.11.

Regarding `C=CCn1c(N)nc2ccccc21`, the z-score amounted to 1.26.

Regarding `CCOC(=O)c1ccc(N/C=C\C(=O)c2cccc(OC)c2)cc1`, the z-score worked out at 0.419.

As to `Cc1cc([N+](=O)[O-])ccc1NCc1cccc2ccccc12`, the z-score was -0.178.

For `CCOC(=O)C1C(=O)NC(N2CCN(c3ccccc3)CC2)=NC1c1ccco1` (centres undefined), the z-score was -0.38.

As to `Cn1c(C(=O)OC(C(=O)NC2CCCCC2)c2ccncc2)cc2sccc21` (centres undefined), the z-score is -1.25.

As to `COc1ccc(NC(=O)c2ccc(COCC(F)(F)C(F)F)cc2)cc1OC`, the z-score was -0.242.

On to `O=C(NCCc1c[nH]c2ccccc12)C1CCN(c2nnc(N3CCCC3=O)s2)CC1`, for which the z-score is 0.757.

As for `Cc1cc(C(=O)NNC(=O)CCCCC(=O)NNC(=O)c2cc(C)[nH]n2)n[nH]1`, the z-score was -0.204.

Turning to `COc1cc(C(=O)Nc2sc(C(=O)N3CCOCC3)c(C)c2C#N)cc(OC)c1OC`, the z-score worked out at 0.197.

Regarding `CCOC(=O)C1C(=O)NC(c2ccccc2)=NC1c1ccc(F)cc1` (centres undefined), the z-score was -0.221.

Turning to `COc1ccc(/C(C)=N/NC(=O)c2nc(C)cc(C)n2)cc1`, the z-score is -0.255.

For `CCC(C)c1ccc(O)c(NC(=O)c2ncn[nH]2)c1` (centres undefined), the z-score was -0.374.

Regarding `O=C(NCCOc1ccccc1)c1ncn[nH]1`, the z-score stood at 0.26.

Take `CCCCNC(=O)CC1N=C2c3ccccc3N=C(SCC(=O)Nc3ccc(OC)cc3)N2C1=O` (centres undefined): the z-score is -0.38.

For `COC(=O)N/N=C1\CCCc2ccccc21`, the z-score was -0.137.

Consider `CC(C)Cc1nc2sc3c(NCc4ccco4)ncnc3c2c2c1COC(C)(C)C2`, for which the z-score was -0.213.

As for `c1ccc2c(CNCCN3CCOCC3)cccc2c1`, the z-score was -0.0436.

As for `COc1ccc(S(=O)(=O)N2Cc3ccccc3CC2C(=O)Nc2ccc3c(c2)OCO3)cc1` (centres undefined), the z-score was -0.22.

`CCOc1cc(CNCCO)cc(Br)c1OCc1ccc(Cl)cc1Cl` returned a z-score of 1.36.

In turn, `Cc1cc(C)c(C(N)=O)c(Nc2cccc(Cl)c2)n1` returned a z-score of 0.431.

`COc1ccccc1-n1c(CNC(=O)COc2ccccc2)n[nH]c1=S` had a z-score of 2.71.

On to `Cc1ccc(/C=C(\NC(=O)c2ccccc2)C(=O)NCCc2ccccn2)o1`, for which the z-score was -0.269.

Consider `Cc1ccc(S(=O)(=O)N(C)C)cc1NC(=O)COC(=O)CCC(=O)c1ccc(F)cc1`, for which the z-score was -0.39.

As for `Cc1cc(C)c2c(=O)[nH]c(SCC(=O)Nc3ccc(N(C)C)cc3)nc2n1`, the z-score is -0.244.

Take `COC(=O)c1ccc(CSc2nnc(NC(=O)C3CC(=O)N(c4ccc5c(c4)OCCO5)C3)s2)cc1` (centres undefined): the z-score is 0.162.

Compound `CCC(=O)Nc1ccc(Oc2ccc3c(c2)C(=O)N(c2ccc(O)cc2)C3=O)cc1` registered a z-score of 0.0337.

Take `CC(C)C(=O)Nc1cccc(NC(=O)CCN2C(=O)c3ccccc3S2(=O)=O)c1`: the z-score was 0.153.

`CC12CN3CC(C)(CN(C1)C3c1ccc(Br)cc1)C2` (centres undefined): the z-score was -0.0896.

Compound `COc1ccc(-c2c(C)n([O-])c(C)c(-c3ccccc3)[n+]2=O)cc1OC` gave a z-score of 0.56.

For the compound `COc1cc(C2=NOC(C(=O)N3CCOCC3)C2)cc(OC)c1OC` (centres undefined), the z-score worked out at 0.39.

Regarding `Cn1c(/C(C#N)=C(\O)c2ccc(S(=O)(=O)N3CCCCC3)cc2)nc2ccccc21`, the z-score is 0.135.

`CC(=O)c1cccc(NC(=S)NCCC2=CCCCC2)c1` came in with a z-score of 0.756.

As to `CCn1nc(C(=O)NNC(=O)COc2ccccc2C)c2ccccc2c1=O`, the z-score was 0.345.

Regarding `O=C(NCc1ccc(F)cc1)c1ccc(CS(=O)(=O)Cc2ccccc2F)o1`, the z-score worked out at 0.438.

Regarding `COc1ccc(C(=O)N/N=C2\SCC(=O)N2Cc2ccc3c(c2)OCO3)c(OC)c1`, the z-score amounted to 0.801.

For the compound `CCCCCCCNC(=O)C1CC(=O)N(C)C(=Nc2ccc(OC)cc2)S1` (centres undefined), the z-score was -0.279.

Turning to `CCCn1c(/N=C/c2cc(OC)ccc2O)nc2ccccc21`, the z-score stood at 0.454.

In turn, `CC(=O)Nc1ccc(S(=O)(=O)N2CCN(c3cc(C)nc4ccccc34)CC2)cc1` returned a z-score of 0.498.

With `COc1ccc(S(=O)(=O)N2CCC(C(=O)N3CCc4ccccc4C3)CC2)cc1Cl`, the z-score is -0.216.

Regarding `CCOC(=O)CSc1nnc(-c2ccccc2)o1`, the z-score is -1.23.

As for `CCn1c(=O)cc(N2CCC3(CC2)OCCO3)[nH]c1=O`, the z-score amounted to 0.0392.

In the case of `Cn1cc(S(=O)(=O)CC(=O)Nc2ccc(Br)cc2)c2ccccc21`, the z-score was -0.0267.

For `CCNC(=S)NNC(=O)c1ccoc1C`, the z-score is -0.0856.

Regarding `CCOC(=O)c1sc(NC(=O)CSc2nccc(C)n2)c(C#N)c1C`, the z-score is -0.249.

`COc1cccc(N2C(=O)C3CC=C(Cl)CC3C2=O)c1` (centres undefined): the z-score is 0.379.

Regarding `O=C(NCc1ccc(F)cc1)c1cnn2ccccc12`, the z-score is -0.256.

Regarding `O=C(NCc1cccnc1)/C(=C\c1ccc(-c2ccc(Br)cc2)o1)S(=O)(=O)c1ccccc1`, the z-score is -0.233.

For the compound `Cc1csc(NC(=O)c2ccoc2C)n1`, the z-score stood at 1.57.

In the case of `COc1ccccc1N(CC(=O)Nc1ccccc1C(=O)NC(C)C)S(C)(=O)=O`, the z-score was -0.955.

In the case of `CCN(c1ccccc1)S(=O)(=O)c1cc(C(=O)O)ccc1C`, the z-score was -1.39.

`CCc1sc(C(=O)NC)cc1Br`: the z-score worked out at 0.0282.

Take `c1csc(-c2nnc(Cc3cccc4ccccc34)o2)c1`: the z-score was -0.022.

Take `Cc1ccc(C)c(NC(=S)N=Nc2c(O)n(C)c3ccc(S(=O)(=O)N4CCOCC4)cc23)c1`: the z-score is active: 4.13.

Take `Cc1ccc(C)c(N2CCN(C(=O)C3CCN(c4nnc(N5CCCC5=O)s4)CC3)CC2)c1`: the z-score is -0.306.

For `Cc1cccc(NC(=O)C2C(C(=O)O)C3C=CC2C32CC2)c1C` (centres undefined), the z-score is -0.389.
